Several values for one entry are separate records, joined by “and”; a condition that tells them apart may be missing. Equal entries are not always repeated. The shares of active, inactive and inconclusive entries below differ from those in the screen. Potencies of inconclusive entries are left out as doubtful fits. Activity calls are given as the source filed them. Calls follow the shape of the dose curve; as a rule, active = well fitted curve in the direction sought with a large enough effect; inconclusive = small, poorly fitted or top-dose-only effect, or another doubt; inactive = no such curve, though single readings can be large; an effect the other way counts as inactive or inconclusive.
Columns and labels:
[1] = BET inhibitor-based combinations targeting novel dependencies in MECOM-rearranged (r) AML: OCI-AML3 cell line (AID 2202232); details: CellTiter-Glo luminescence, 48 h; Potency: OCI-AML3 viability; viability (% of control): at 46 µM (top of the series); also: nearly all actives have a fitted effect of over 35% in size
Summary of the method: (§1)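 A 48 hr incubation preceded viability reading by CellTiter-Glo, with 15 min room-temperature development. Dose series had 11 points; normalization used DMSO and empty wells; AUC was computed and mean-centered per line as Z-AUC.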

[2] = BET inhibitor-based combinations targeting novel dependencies in MECOM-rearranged (r) AML: HNT-34 cell line (AID 2202234); also: nearly all actives have a fitted effect of over 35% in size
Summary of the method: (§2)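 Each compound is tested in an 11-point concentration series against 500 seeded cells/well for 48 hr. The luminescent viability signal is normalized to DMSO and blank wells, then reduced to AUC and a cell-line-centred Z-AUC.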

[3] = BET inhibitor-based combinations targeting novel dependencies in MECOM-rearranged (r) AML: UCSD-AML1 cell line (AID 2202235); details: UCSD-AML1 AML cells viability, CellTiter-Glo, 48 h; viability (% of control): at 46 µM (top of the series); also: nearly all actives have a fitted effect of over 40% in size
Summary of the method: as §2

[4] = BET inhibitor-based combinations targeting novel dependencies in MECOM-rearranged (r) AML: AML-191 cell line (AID 2202236; also: nearly all actives have a fitted effect of over 35% in size)
Summary of the method: as §1

[5] = BET inhibitor-based combinations targeting novel dependencies in MECOM-rearranged (r) AML: AML-194 cell line (AID 2202237; also: nearly all actives have a fitted effect of over 40% in size)
Summary of the method: as §1
Potency is read from the fitted curve at half-maximal effect; tags tell the direction and shape of the fitted curve.

| SMILES | Potency [1] | Potency [2] | Potency [3] | Potency [4] | Potency [5] |
| --- | --- | --- | --- | --- | --- |
| O=c1c(O)c(-c2ccc(O)cc2)oc2cc(O)cc(O)c12 | inconclusive [inhibitor, partial curve, poor fit] | inconclusive [inhibitor, single point] | inactive |  |  |
| CC1COc2c(N3CCN(C)CC3)c(F)cc3c(=O)c(C(=O)O)cn1c23 (stereo unspecified) | inconclusive [inhibitor, full curve, poor fit] | inactive |  |  |  |
| Cc1c(CCOc2ccc(C(=O)O)cc2)c2cc(Cl)ccc2n1C(c1ccccc1)c1ccccc1 | inactive | inactive | inactive |  |  |
| CNC(=O)c1cc(Oc2ccc(NC(=O)Nc3cc(C(C)(C)C)nn3-c3ccc4ncccc4c3)c(F)c2)ccn1 | active: 23.5 µM | active: 0.148 µM | active: 16.6 µM |  |  |
| NC(=O)c1ccc(I)c([N+](=O)[O-])c1 | inconclusive [inhibitor, partial curve] | inconclusive [inhibitor, single point] | inactive | inconclusive [inhibitor, single point] |  |
| COc1ccc(-n2nc(C(N)=O)c3c2C(=O)N(c2ccc(N4CCCCC4=O)cc2)CC3)cc1 | inactive | inconclusive [inhibitor, single point] | inconclusive [inhibitor, full curve, poor fit] |  |  |
| CCCc1cc(C(N)=S)ccn1 | inactive | inactive |  |  |  |
| COc1ccc(S(=O)(=O)N2CCc3cccc(-c4ccncc4)c32)cc1 | active: 1.05 µM | inconclusive [inhibitor, full curve] |  |  |  |
| N#Cc1ccnc(N2C(=O)CC[C@H]2C(=O)N(c2cncc(F)c2)C(C(=O)NC2CC(F)(F)C2)c2ccccc2Cl)c1 (stereo partly specified) | inactive | inactive |  |  |  |
| NC(=O)c1nc(F)c[nH]c1=O | inactive | inactive | inactive |  |  |
| Cc1cccc(Nc2nc(N[C@@H]3CCCC[C@H]3N)ncc2C(N)=O)c1 | active: 16.6 µM | active: 18.6 µM | inconclusive [inhibitor, single point] |  |  |
| O=C(/C=C/c1ccc2ccc(C(F)(F)F)cc2n1)c1ccncc1 | active: 1.86 µM | active: 1.32 µM |  |  |  |
| O=C(NC[C@H](O)CN1CCc2ccccc2C1)c1cc(NC2COC2)ncn1 | inconclusive [inhibitor, full curve, poor fit] | inactive | inactive |  |  |
| CC1CNc2c(cccc2S(=O)(=O)N[C@@H](CCCN=C(N)N)C(=O)N2CC[C@@H](C)C[C@@H]2C(=O)O)C1 (stereo partly specified) | inactive | inactive |  |  |  |
| CCOC(=O)C(C)(C)Oc1ccc(Cl)cc1 | inactive | inactive | inactive |  |  |
| CCCN[C@H]1CCc2nc(N)sc2C1 | inactive | inactive | inactive |  |  |
| O=C(O)C(O)Cc1ccc(O)c(O)c1 (stereo unspecified) | inactive | inactive | inactive | inactive |  |
| CC(C)(C)NCC(O)c1ccc(O)c(CO)c1 (stereo unspecified) | inactive | inactive |  |  |  |
| CCN(CC)CCCC(C)Nc1nc(C)cc(Nc2ccc3nc(C)cc(N)c3c2)n1 (stereo unspecified) | inconclusive [inhibitor, partial curve, poor fit] | inconclusive [inhibitor, partial curve] |  |  |  |
| C#CCN[C@@H]1CCc2ccccc21 | inconclusive [inhibitor, partial curve, poor fit] | inactive |  |  |  |

| SMILES | Potency [1] | Potency [2] | Potency [3] | Potency [4] | Potency [5] |
| --- | --- | --- | --- | --- | --- |
| COc1ccc(C(=O)C2CCN(CC(=O)N(Cc3nc4c(c(=O)[nH]3)COCC4)CC3CC3)CC2)cc1 | inconclusive [inhibitor, full curve, poor fit] | inactive |  |  |  |
| CC(c1cc2ccccc2s1)N(O)C(N)=O (stereo unspecified) | inactive | inactive | inactive |  |  |
| C=CCc1cccc(/C=N/NC(=O)CN2CCN(Cc3ccccc3)CC2)c1O | inconclusive [inhibitor, partial curve, poor fit] | inconclusive [inhibitor, partial curve] |  |  |  |
| CN(C(Cc1ccc(OS(=O)(=O)c2cccc3cnccc23)cc1)C(=O)N1CCN(c2ccccc2)CC1)S(=O)(=O)c1cccc2cnccc12 (stereo unspecified) | inactive | inconclusive [inhibitor, full curve] |  |  |  |
| NCCCCCC(=O)O | active: 0.0037 µM | inactive |  |  |  |
| CCCn1c(=O)c2[nH]c(C34CC5CC3C[C@@H](C5)C4)nc2n(CCC)c1=O | inconclusive [inhibitor, single point] | inconclusive [inhibitor, partial curve] |  |  |  |
| O=C(CCc1ccc(O)cc1)c1c(O)cc(O)cc1O[C@@H]1O[C@H](CO)[C@@H](O)[C@H](O)[C@H]1O | inactive | inactive |  |  |  |
| COc1cccc2c1C(=O)c1c(O)c3c(c(O)c1C2=O)C[C@@](O)(C(=O)CO)C[C@@H]3O[C@H]1C[C@H](N)[C@H](OC2CCCCO2)[C@H](C)O1 (stereo partly specified) | inconclusive [inhibitor] | active: 332 nM and active: 235 nM | active: 209 nM and active: 263 nM |  | active: 332 nM and active: 296 nM |
| O=C(NCCCNC(=O)c1ccc[nH]c1=O)c1cc(-c2ccccc2)on1 | inconclusive [inhibitor, full curve] | inconclusive [inhibitor, partial curve] | inconclusive [inhibitor, partial curve] | inconclusive [inhibitor, partial curve, poor fit] | active: 14.8 µM |
| CN(C)c1ccc2cc(C(=O)N[C@@H](CCCN=C(N)CCl)C(=O)NCc3ccccc3)ccc2c1 | inconclusive [inhibitor, partial curve] | inconclusive [inhibitor, single point] | inconclusive [inhibitor, single point] | inconclusive [inhibitor, partial curve, poor fit] | inactive |
| CN1C(=O)N[C@H](Cc2c[nH]c3c(Cl)cccc23)C1=O | inactive | inactive | inactive |  | inconclusive [inhibitor, partial curve, poor fit] |
| CCn1c(=O)c(-c2ccc(-c3cncc(C)n3)cc2Cl)cc2cnc(NCCC3CCN(C)CC3)nc21 | inconclusive [inhibitor, partial curve, poor fit] | inconclusive [inhibitor, single point] |  | inconclusive [inhibitor, single point] |  |
| O=S(=O)(NCCNC/C=C/c1ccc(Br)cc1)c1cccc2cnccc12 | inconclusive [inhibitor, full curve] | inconclusive [inhibitor, partial curve] | inconclusive [inhibitor, partial curve] | inconclusive [inhibitor, partial curve] | inconclusive [inhibitor, single point] |
| CCC(=O)NCC[C@@H]1CCc2ccc3c(c21)CCO3 | inactive | inactive |  | inactive |  |
| COc1cc2c(NC3CCN(C4CCCCC4)CC3)nc(N3CCCN(C(C)C)CC3)nc2cc1OCCCN1CCCCC1 | inconclusive [inhibitor, partial curve] | inconclusive [inhibitor, partial curve, poor fit] | inconclusive [inhibitor, partial curve] | inconclusive [inhibitor, partial curve, poor fit] | inconclusive [inhibitor, partial curve, poor fit] |
| CC(=O)Nc1cccc(-n2c(=O)n(C3CC3)c(=O)c3c(Nc4ccc(I)cc4F)n(C)c(=O)c(C)c32)c1 | inconclusive [inhibitor, full curve] | inconclusive [inhibitor, full curve] | inconclusive [inhibitor, full curve] | inconclusive [inhibitor, full curve] | inconclusive [inhibitor, full curve] |
| CN(C)C/C=C/C(=O)Nc1cc2c(Nc3ccc(F)c(Cl)c3)ncnc2cc1O[C@H]1CCOC1 | inconclusive [inhibitor, full curve] | active: 2.95 µM | inconclusive [inhibitor, full curve, poor fit] | active: 7.42 µM |  |
| CN[C@@H](C)C(=O)N[C@H](C(=O)N1CCC[C@H]1c1nc(C(=O)c2ccc(F)cc2)cs1)C1CCCCC1 | inconclusive [inhibitor, partial curve, poor fit] | inconclusive [inhibitor, full curve] | active: 20.9 µM | inconclusive [inhibitor, full curve] | inconclusive [inhibitor, partial curve, poor fit] |
| CC1(C)C(N(O)C(=O)Nc2ccc(Cl)cc2)N(c2ccc(Cl)cc2)C(=O)N1CC(=O)N/N=C/C=C/c1ccc([N+](=O)[O-])o1 (stereo unspecified) | active: 3.32 µM | active: 13.2 µM | inconclusive [inhibitor, single point] | inconclusive [inhibitor, single point] | inconclusive [inhibitor, single point] |

— PubChem BioAssay (NCATS)
